Results: PubChem BioAssay AID485294 (National Center for Advancing Translational Sciences (NCATS), 2010)
Values joined by “and” are separate entries in the source; they are usually repeats but may differ in a detail not shown here. Equal values may be shown once. In all, about 370,000 compounds went through this assay and about 150 (0.041%) were called active. The inconclusive results got no clear call from the source; some entries with a clear call stand among them for comparison. The call rests on the fitted dose curve; in most records, active means well fitted inhibition curve with a large enough effect; inconclusive means small, poorly fitted or top-dose-only effect; inactive means flat fitted curve, though single readings scatter. Potencies of inconclusive entries are doubtful fits and often do not repeat.

target: Beta-lactamase (Escherichia coli (strain K12)) (UniProt P00811); assay: qHTS Inhibitors of AmpC Beta-Lactamase (assay with detergent); settings: AmpC hydrolysis of nitrocefin, absorbance 480 nm, 0.01% Triton; activity change, negative = inhibition: at 114 µM (top of the series); further: nearly all actives have a fitted effect of over 25% in size;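 on activity change, negative = inhibition: 0% = no-compound wells and -100% = no-enzyme wells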
Procedure, shortened: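 20 mM phosphate pH 7.0 + 0.01% (detergent screen) or 0.0001% Triton X-100; 5.3 nM AmpC reagent; cpd preinc 15 min RT; nitrocefin (800 uM stock) to start; A480 q20 s × 4 min; Activity was normalised to no-enzyme and no-compound control wells.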
Potency means the concentration at half of the fitted maximal effect; tags describe the fitted curve by direction and shape.

UniProt P00811, sequence (P00811 whole entry, looked up): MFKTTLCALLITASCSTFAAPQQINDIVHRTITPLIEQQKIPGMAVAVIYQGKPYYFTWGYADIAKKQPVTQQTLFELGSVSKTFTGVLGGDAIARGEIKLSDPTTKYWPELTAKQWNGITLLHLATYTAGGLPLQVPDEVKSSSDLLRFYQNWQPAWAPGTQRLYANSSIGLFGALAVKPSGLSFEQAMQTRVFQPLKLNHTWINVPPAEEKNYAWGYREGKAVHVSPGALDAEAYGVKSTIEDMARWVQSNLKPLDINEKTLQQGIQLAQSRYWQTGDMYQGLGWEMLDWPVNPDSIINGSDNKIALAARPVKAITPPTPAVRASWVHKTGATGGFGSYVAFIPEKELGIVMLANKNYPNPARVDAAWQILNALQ

SMILES | Potency | activity change, negative = inhibition
CC(C)CC(C(=O)N1CCc2ccccc2C1)N1C(=O)c2ccccc2C1=O (stereo unspecified) | inconclusive: 2.82 µM [inhibitor, single point] | 
COc1ccc(Cc2nnc(NC(=O)c3cccs3)s2)cc1 | inconclusive: 17.8 µM [inhibitor, partial curve] | 
CCc1nc2nc(C)c(NS(=O)(=O)c3cccs3)c(=O)n2[nH]1 | inconclusive: 8.91 µM [inhibitor, partial curve] | 
Nn1c(SCC(=O)N2CCCc3ccccc32)nnc1-c1ccc(Cl)cc1 |  | inactive: -10.6%
COc1ccc(CCNC(=O)c2ccc(Cl)nc2)cc1 | inconclusive: 100 µM [inhibitor, single point] | 
Cn1c(=O)oc2cc(S(=O)(=O)NC(Cc3ccccc3)C(=O)NCc3ccc(F)cc3)ccc21 (stereo unspecified) | inconclusive: 89.1 µM [inhibitor, single point] | 
O=C(Nc1ccc2oc(-c3ccccc3F)nc2c1)c1ccc([N+](=O)[O-])o1 | inconclusive: 44.7 µM [inhibitor, partial curve] | 
CCc1ccc(NC(=O)c2ccccc2SC)cc1 |  | inactive: -9.6%
O=C(O)CC1Oc2ccc(Cl)cc2NC1=O (stereo unspecified) | inconclusive: 4.47 µM [inhibitor, full curve] | 
Cc1nc2c(c(C)c1C#N)C(=O)c1ccccc1-2 | inconclusive: 5.62 µM [inhibitor, full curve, poor fit] | 
CC1CCc2c(sc(/N=C/c3cccnc3)c2C(N)=O)C1 (stereo unspecified) |  | inactive: 3.04%
Fc1ccccc1OCCSc1nc2ccccc2o1 | inconclusive: 0.631 µM [inhibitor, full curve, poor fit] | 
COC(=O)c1ccc(-n2c(CCC(=O)O)ccc2-c2ccc(C)cc2)cc1 | inactive | 
O=C(N/N=C\c1ccc(COc2ccc([N+](=O)[O-])cc2)o1)c1cccc(Cl)c1 | inconclusive: 4.47 µM [inhibitor, single point] | 
Cc1nc(N2CCN(C(=O)c3cccs3)CC2)c2c3c(sc2n1)CCCC3 | active: 35.5 µM | 
CCOC(=O)Cn1c(=O)n(CC2CCCO2)c2nc(-c3cccc(C)c3)nc(C(N)=O)c21 (stereo unspecified) |  | inactive: 19.9%
COc1ccc(C(=O)N2CCc3[nH]nc(-c4ccccc4)c3C2)cc1 | inconclusive: 14.1 µM [inhibitor, partial curve] | 
O=C(Nc1ccc(F)c(Cl)c1)c1ccccc1 | inconclusive: 4.47 µM [inhibitor, single point] | 
O=C(CSc1nncc2ccccc12)Nc1ccc(C(=O)O)cc1 | inconclusive: 3.16 µM [inhibitor, full curve, poor fit] | 
Cc1cc(Cl)ccc1C(=O)C1CCCN(C(=O)c2nonc2C)C1 (stereo unspecified) | inconclusive: 1.12 µM [inhibitor, full curve, poor fit] | 
O=C(c1ccc(Cl)cc1)N1CCn2c1nc1ccccc12 | inconclusive: 17.8 µM [inhibitor, full curve] | 
CCOc1ccc(NCc2cccn2-c2nnc(N3CCC(C(=O)NCCCN4CCCCC4C)CC3)s2)cc1 (stereo unspecified) | inconclusive: 89.1 µM [inhibitor, partial curve] | 
CCc1cccc2c(C(=O)CCl)c[nH]c12 |  | inactive: -9.3%
Nc1nc(Cl)nc2c1ncn2C1CC(O)C(CO)O1 (stereo unspecified) |  | inactive: -14.9%

SMILES | Potency | activity change, negative = inhibition
COc1ccc(S(=O)(=O)N(C)C2CCN(C)CC2)cc1 | inconclusive: 3.98 µM [inhibitor, partial curve, poor fit] | 
COc1ccccc1NS(=O)(=O)c1cc(C(=O)N2CC(C)CC(C)C2)ccc1C (stereo unspecified) |  | inactive: -4.85%
Cc1cc2oc(=O)cc(CN3CCCc4ccccc43)c2cc1C | inconclusive: 89.1 µM [inhibitor, single point] | 
Cc1cc(NCc2ccc3c(c2)OCO3)n2nc(C)nc2n1 | inconclusive: 112 µM [inhibitor, partial curve, poor fit] | 
CCN=C(NCC)SC1CC(=O)N(c2ccccc2)C1=O (stereo unspecified) | inconclusive: 100 µM [inhibitor, partial curve] | 
CCCCc1ncc(CN2CCC(n3nccc3NC(=O)c3ccccc3OC)CC2)[nH]1 |  | inactive: -12.9%
CCC(C)NC(=O)CSc1c2c(nc3ccccc13)CCCC2 (stereo unspecified) |  | inactive: -1.32%
CC(C)C[C@H]1CNC(=O)C(=O)N1C[C@H](C)NC(=O)Cc1ccccc1 | inconclusive: 0.631 µM [inhibitor, full curve, poor fit] | 
Cc1ccc(NC(=O)C2CCCN2C(=O)OCc2ccccc2)c(C)c1 (stereo unspecified) |  | inactive: -3.25%
COc1cccc(-n2cnc(=O)c3cccnc32)c1 | inconclusive: 25.1 µM [inhibitor, full curve] | 
O=C(CCCn1c(=O)c2cccn2c2ccc(F)cc21)NCc1ccc(Cl)cc1 |  | inactive: -1.26%
CCCSc1ccc2nc(NC(=O)OC)[nH]c2c1 | inconclusive: 89.1 µM [inhibitor, partial curve, poor fit] | 
C=CCSc1nnc2c(n1)OC(c1ccccn1)N(C(C)=O)c1ccccc1-2 (stereo unspecified) | inconclusive: 35.5 µM [inhibitor, full curve, poor fit] | 
O=C(O)CCC(=O)N1CCc2cc(S(=O)(=O)NCc3ccc(Cl)cc3)ccc21 |  | inactive: 2.1%
Cc1ccc(CCNC(=O)C2CCN(S(=O)(=O)N3CCCC3)CC2)cc1 | inconclusive: 0.562 µM [inhibitor, full curve, poor fit] | 
CC(C)c1nc2scc(-c3ccc(Cl)cc3)c2c(=O)n1N |  | inactive: 0.404%
COc1cc(CC(=O)NCc2ccccn2)cc(OC)c1OC | inconclusive: 44.7 µM [inhibitor, single point] | 
Cc1ccc(S(=O)(=O)N(CC(=O)N2CCCCC2)c2cccc(C)c2)cc1 | inconclusive: 89.1 µM [inhibitor, partial curve, poor fit] | 
CCc1ccc(C(=O)NN=C2CCCCCC2)s1 | inconclusive: 5.62 µM [inhibitor, full curve, poor fit] | 
Cc1cc(OC(C)C(=O)N(Cc2cccs2)C2CCS(=O)(=O)C2)ccc1Cl (stereo unspecified) | inconclusive: 50.1 µM [inhibitor, partial curve] | 
COc1cc(Cl)c(S(=O)(=O)N2CC(C)OC(C)C2)cc1Cl (stereo unspecified) | inconclusive: 5.62 µM [inhibitor, full curve, poor fit] | 
O=C(COC(=O)c1cccnc1Nc1ccccc1F)NCCN1C(=O)CSC1=O | inconclusive: 44.7 µM [inhibitor, single point] | 
Cc1cccc(NC(=O)COC(=O)CCc2ccccc2)c1C | inconclusive: 44.7 µM [inhibitor, partial curve] | 
CCC(CC)C(=O)Nc1cccc(/C(C)=N/NC(=O)c2ccccc2Cl)c1 |  | inactive: -7.27%

SMILES | Potency | activity change, negative = inhibition
CC(=O)n1cc([C@@H]2C=C(C(=O)N3CCOCC3)O[C@H](OCCCCO)C2)c2ccccc21 |  | inactive: -6.89%
COc1ccc(Cl)cc1NC(=O)COC(=O)CCc1cc(OC)c(OC)c(OC)c1 | inconclusive: 100 µM [inhibitor, single point] | 
Cc1nc2ncnn2c(C)c1CCC(=O)N1CCN(c2ccccc2)CC1 |  | inactive: 1.91%
CC(=O)N/N=C(/c1ccccc1)C(O)c1ccccc1 (stereo unspecified) | inconclusive: 0.631 µM [inhibitor, full curve, poor fit] | 
CCOC(=O)c1sc(=S)n(-c2ccccc2)c1C |  | inactive: 1.68%
CC(OC(=O)c1ccc(F)cc1)C(=O)Nc1nc(-c2cccc([N+](=O)[O-])c2)cs1 (stereo unspecified) | inconclusive: 63.1 µM [inhibitor, partial curve, poor fit] | 
CC(C)C(c1nnnn1Cc1ccco1)N1CCN(c2nc3ccccc3s2)CC1 (stereo unspecified) | inconclusive: 20 µM [inhibitor, partial curve] | 
COCCNC(=O)CCc1c(C)nc2c(-c3ccc(F)cc3)c(C)nn2c1C | inconclusive: 31.6 µM [inhibitor, full curve, poor fit] | 
CCOC(=O)C1=C(Nc2ccc(Cl)cc2)OCC1=O |  | inactive: -10.6%
CCn1c(NCc2ccc(OC)cc2)nc2ccccc21 | inactive and inconclusive: 562 nM [inhibitor, full curve, poor fit] | 
O=C(COc1ccc2c3c(c(=O)oc2c1)CCCC3)N[C@@H](Cc1ccccc1)C(=O)O | inconclusive: 0.224 µM [inhibitor, full curve, poor fit] | 
C=CCn1c(CSc2nc3ccccc3s2)n[nH]c1=S |  | inactive: -10.2%
CCCCc1nc2cc(C(=O)N3CCCCC3CCNC(C)=O)ccc2o1 (stereo unspecified) |  | inactive: -14%
COc1cc(/C=N/Nc2ccc(F)cc2F)cc(OC)c1O |  | inactive: -4.91%
CCc1nc(SCC(=O)Nc2cccc(C(F)(F)F)c2)c2c(=O)n(C)c(=O)n(C)c2n1 | inconclusive: 3.55 µM [inhibitor, full curve, poor fit] | 
Nc1nc(SCCOc2ccccc2)n[nH]1 | inconclusive: 44.7 µM [inhibitor, partial curve] | 
O=c1oc(-c2ccc([N+](=O)[O-])cc2)nc2ccc(O)cc12 | inconclusive: 25.1 µM [inhibitor, full curve] | 
COc1ccc(CCC(=O)Nc2ccc(S(=O)(=O)N3CCOCC3)cc2)cc1 |  | inactive: -7.02%
Nc1c(Cl)cc(C2=NCCn3nc4cc(C(F)(F)F)ccc4c32)cc1Cl | inconclusive: 31.6 µM [inhibitor, full curve, poor fit] | 
COc1cccc(C(=O)Nc2ccc(N3CCN(Cc4ccccc4)CC3)cc2)c1 |  | inactive: -0.841%
CC(C)(C)c1cc(CP(=O)(c2ccccc2)c2ccccc2)cc(C(C)(C)C)c1O | inconclusive: 2.24 µM [inhibitor, full curve, poor fit] | 
Cc1ccc(N2C(=O)CSC2c2ccc3c(c2)OCO3)cc1 (stereo unspecified) |  | inactive: 0.29%
C#CC(=O)N(c1cccc(OC)c1)C(C(=O)NC1CCCC1)c1cccs1 (stereo unspecified) |  | inactive: -2.75%
